The source of these data is the RNAGym collection of RNA variant scans (doi:10.1093/nar/gkz1192).

Read counts are not given, so values of variants with three or more changes are uncertain.

First the molecules themselves.
B1: CPEB3 Ribozyme (parent)
chain: UAACAGGGGGCCACAGCAGAAGCGUUCACGUCGCAGCCCCUGUCAGAUUCUGGUGAAUCUGCGAAUUCUGCUGUAUAUCUC

The variants in this series derive from B1. Kind of series: self-cleavage, relative activity (ratio to wild type); higher = more cleavage; in vitro, sequencing. In short, it runs like this:
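After error-prone PCR and barcoding, CPEB3 ribozyme mutant libraries were transcribed with T7 RNA polymerase at 37°C for 5 hours, then given 15 min with DNase I before an EDTA stop, and they cleaved during both steps. Reverse transcription with template switching preceded Illumina sequencing. Relative activity divides a variant's cleaved/total read fraction by the unmutated ribozyme's. At least 5 reads were required per variant, and three batches were averaged.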
In the case of G10A A45U U69C, the self-cleavage is 0.06. For the variant G10A U26G U54C, the self-cleavage amounted to 0.14. The value for G10A U25C U31A G53C C71U was 0.05; that for G10C A13C A20G A45G U48C was 0.05; that for G10A U25C A35G A47G was 0.03.

For the variant G10A U41G A45G, the self-cleavage was found to be 0.07. The value for G10A A64G U66C was 0.17; that for G10A G52C U76C was 0.24; that for G10A U26A U41A U51C was 0.16. Then G10A U60A U80C, with 0.06; and G10A C29G U78C C79U, with 0.17. As to G10A C12G U26A U69C A75U U80C, the self-cleavage is 0.01. In the case of G10A U43G U49C U69C A77G, the self-cleavage was 0.11. The value for G10A U25C U41C A77G was 0.03; that for G10A C11A A13U A21G C44A U48C G52U was 0.04; that for G10A C40U U72C was 0.18. Then G10A A47C U80C, with 0.33; and G10A G73A A77U, with 0.56. Turning to G10A U43A U60A U72A A77G, the self-cleavage came to 0.05. Then G10A C32A A35G U54C, with 0.08. On to G10A G16A A20U U72C, for which the self-cleavage was 0.1. Turning to G10A G16A C17U U48C U76C, the self-cleavage stood at 0.13. The value for G10A U25C A35G U49C U54C A75G was 0.03; that for G10A C17G U66C was 0.2; that for G10A U25C U41C was 0.26.

G10C A13U U43A A56G: the self-cleavage is 0.11. The value for G10A G63U U80C was 0.36; that for G10A U25G A47G U49A U69C U72C was 0.04. On to G10A U26C G33A, for which the self-cleavage was 0.05. The value for G10A U26C U31C U41C A45U U74A was 0.03; that for G10A U25C G52C G70A was 0.09; that for G10A U60C A65G U78C was 0.12. Then G10A U48C A64G A65G, with 0.14; and G10C A13G U25C C38U A57G U80C, with 0.06. Regarding G10A C62G A77G, the self-cleavage is 0.05. As for G10A G19U A28U G33A U66C U69C, the self-cleavage was 0.03. As to G10A U41C A45U U51G, the self-cleavage was 0.17. The value for G10A U43C A47G U69C U72C U74A was 0.04; that for G10A U49A U74C was 0.12.

Regarding G10A U25C U49A U51A G70U, the self-cleavage turned out to be 0.16. Turning to G10A C40U A45C A56G, the self-cleavage came to 0.08.

With G10A U26C A45C A56G A64G U72C, the self-cleavage came to 0.18. The value for G10A C12A U58C U60G A75G was 0.03; that for G10A C12U A28G U67G was 0.04. The value for G10A C27U G36A U43G was 0.11. The value for G10A C29G C79U was 0.06; that for G10A U43A A64G was 0.07. For the variant G10C A15G U43C A45C U66A U67C, the self-cleavage turned out to be 0.2. Then G10A U25A U48C U80C, with 0.06; and G10C A15G C29U G52C U54A U69A, with 0.05.

With G10A C29U U51A U54C, the self-cleavage is 0.06. On to G10A U25C U48G U74C C81U, for which the self-cleavage was 0.05.

For the variant G10A U31C G70U U72A, the self-cleavage was 0.1. The value for G10C A15U U25C U26C U58A was 0.11. The value for G10A U58C U69C was 0.14; that for G10A U43C U80C was 0.16; that for G10A C29A C38U U51C C62U A77U was 0.04. The value for G10A G19C A21G U72C A75G U78A was 0.05; that for G10A U31G A35G A64U U80A was 0.15. Turning to G10A U31C U49A, the self-cleavage is 0.06. The value for G10A U26C U31C A47G was 0.06; that for G10A C34U G52A was 0.08. Then G10A G19C G30C C38A U72C U74A, with 0.02; and G10A G52A U76C, with 0.4; and G10A A64G U66C U72C A75G U80A, with 0.04.

Consider G10A G36C C44A U69C, for which the self-cleavage worked out at 0.06. As for G10A U41C A56C U66A, the self-cleavage was determined as 0.06. Then G10A U25C G63A, with 0.19; and G10A C39A U74C, with 0.27; and G10A U25C U31C U72C, with 0.07. As to G10A U25A A56G U74A U78C, the self-cleavage is 0.21. Regarding G10A U51G U72C, the self-cleavage is 0.23. Then G10A G24A A56U A64G U66C C81A, with 0.05; and G10A C37U G61A A64U, with 0.05; and G10C A15U U43A A64G U76A, with 0.29. The value for G10A C44U U54C A77G U78A was 0.04; that for G10A U25C U26C A57U was 0.2; that for G10A U25C A28G U48C was 0.07. With G10A C44A A45C U54G A56G, the self-cleavage was 0.17.

In the case of G10A G33A U49C, the self-cleavage is 0.33.

In the case of G10A U25C U67A, the self-cleavage was determined as 0.2. The value for G10A U25C A64U was 0.14; that for G10A U25C A35U U43C U74A was 0.04. G10A A45U U60A A64U U69A: the self-cleavage was determined as 0.08.
